# Laboratory results reported in the supplement of paper PMC12217912.
# The list shows a part of the results. The full chains were built here from the parent and the listed change. Inactive controls read about 0.05.
# B1: TEV protease; numbered along this chain (parent)
# chain: MGESLFKGPRDYNPISSSICHLTNESDGHTTSLYGIGFGPFIITNKHLFRRNNGTLVVQSLHGVFKVKDTTTLQQHLVDGRDMIIIRMPKDFPPFPQKLKFREPQREERICLVTTNFQTKSMSSMVSDTSCTFPSGDGIFWKHWIQTKDGQCGSPLVSTRDGFIVGIHSASNFTNTNNYFTSVPKNFMELLTNQEAQQWVSGWRLNADSVLWGGHKVFMVKPEEPFQPVKEATQL
# Variants of: B1
# Test: raw area under fraction-flipped curve 0-4 h after induction (AUC4h, not background-subtracted), DNA-recorder readout of cleavage of the substrate (dimensionless); higher = more cleavage of the substrate by the protease variant
# Conditions: temperature: 34 °C; time window: 0-4 h after rhamnose induction
# Description: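 In vivo DNA recorder in E. coli TOP10(DE3) ΔrhaA at 34 °C. Each TEVp single-site mutant (parent TEVp 0) is paired with a single-site variant of the 7-mer TEVs (canonical ENLYFQ|S). The substrate sits between flexible linkers in a Bxb1-sfGFP-TEVs-SsrA fusion, so cleavage stabilises Bxb1 and speeds flipping of a recombination array, read by NGS. The value is the raw area under the fraction-flipped curve over 0-4 h after rhamnose induction (AUC4h), with ≥20 reads per time point. It is not background-subtracted; inactive controls average about 0.047.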
# 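Also: Bxb1 expression induced with 0.2% (w/v) L-rhamnose at OD600 near 0.5, cultures sampled hourly, flipped fraction per protease–substrate barcode pair counted by paired-end Illumina sequencing.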
Variant,area with substrate ENLYFAS,area with substrate ENLYFDS,area with substrate ENLYFES,area with substrate ENLYFFS,area with substrate ENLYFGS,area with substrate ENLYFHS,area with substrate ENLYFIS,area with substrate ENLYFMS,area with substrate ENLYFNS,area with substrate ENLYFPS,area with substrate ENLYFRS,area with substrate ENLYFSS,area with substrate ENLYFTS,area with substrate ENLYFVS,area with substrate ENLYFWS,area with substrate ENLYFYS,area with substrate ENLYFCS,area with substrate ENLYFKS,area with substrate ENLYFLS
E189G,0.0537,0.0675,0.0627,0.0675,0.0568,0.0554,0.0638,0.0689,0.0645,0.0603,0.0526,0.0661,0.0618,0.0557,0.0519,0.0613,–,–,–
E189N,0.0522,0.129,0.0599,0.0278,0.0748,–,0.0535,0.0839,–,0.0617,–,–,0.0692,0.0657,0.0515,0.0518,0.066,0.0602,–
E189T,0.0486,–,0.0653,0.0489,0.0557,0.0832,0.0609,0.0384,–,0.0603,0.0575,–,0.0669,0.0548,–,–,0.0427,–,–
Q194N,0.0561,0.0472,–,–,–,0.0671,0.054,0.0671,0.0378,0.0548,–,–,0.0581,–,–,0.0489,–,0.0572,–
E195N,0.0634,–,–,0.0712,–,0.0403,0.0518,0.0608,0.0581,0.0694,0.0637,0.0797,–,–,0.0527,0.0491,0.0518,–,–
E195R,0.0462,–,–,0.0854,0.0635,0.0601,0.0451,0.0641,–,0.0616,0.0585,0.0649,0.0766,0.0504,0.0508,0.0622,0.0443,0.0693,–
Q197V,0.0632,0.0671,0.0639,0.0636,0.0522,0.0523,0.0556,0.0665,0.0587,0.0654,0.0548,0.0818,–,–,–,0.0629,0.0483,–,0.0613
Q198A,0.0628,–,0.0545,–,–,0.0516,0.0601,0.0597,0.0773,0.0605,–,–,–,–,0.0533,0.0573,0.0766,0.0387,0.059
Q198L,0.0577,0.0613,0.0607,0.0571,0.0729,–,0.0463,0.0667,0.0676,0.0486,–,0.0474,0.0359,0.0719,–,–,0.0532,0.0667,–
W199F,0.0469,0.0541,0.0531,0.0567,0.0493,–,0.063,0.057,0.072,0.0641,0.0546,0.0778,0.0612,0.0649,0.0519,–,0.0327,0.0734,0.0645
W199P,0.0543,–,0.0619,0.0714,–,0.054,0.0582,0.061,–,0.0289,0.0645,0.0657,0.0592,–,0.0658,–,0.0598,0.0555,0.0602
G202R,0.0676,–,0.0562,0.0594,0.0646,–,0.0574,0.0668,0.0792,0.0446,0.063,–,0.0611,0.0551,–,–,–,0.0649,–
W203V,0.0773,0.059,0.0594,0.0656,0.0552,0.0563,0.052,0.0592,0.0178,0.061,0.0574,0.0591,0.0595,–,0.0631,–,0.0502,0.0527,–
R204M,0.0557,–,0.0734,0.0716,0.0583,0.0643,0.0567,0.0755,0.0719,0.0563,0.0604,0.0522,0.0699,0.0344,0.0775,–,0.0552,0.048,0.0651
R204V,0.0524,–,0.0602,0.0646,0.0684,0.0642,0.0596,0.0614,0.0662,0.0566,–,0.0644,0.0507,0.0441,0.0548,0.0544,0.0608,0.0881,0.0585
L205H,0.0682,0.0573,0.0582,–,–,–,0.0706,0.0593,–,0.0575,–,–,–,–,–,–,0.0513,0.0695,0.0611
A207T,0.0619,–,0.0573,0.0637,0.0643,0.002,0.0632,0.0698,0.0675,0.0651,0.0613,0.06,–,–,0.0568,0.0627,0.0558,0.0656,–
V210N,0.0829,–,0.0537,0.0747,0.0816,–,0.0622,0.0738,0.0784,0.0571,–,–,0.0747,0.0579,0.0649,0.0542,–,0.0569,–
L211M,0.0703,–,0.0569,0.0631,–,–,0.0566,0.0693,0.0592,0.0609,0.0695,0.0269,0.0548,0.0566,0.0622,0.0568,0.0463,0.135,0.0461
G213R,0.0505,0.0424,0.055,0.0664,0.0574,–,0.0554,–,–,0.0541,0.0543,0.0661,0.0552,–,–,0.0581,0.059,0.0496,0.052
G214D,0.044,0.0446,0.0469,0.0517,–,0.0551,0.0517,0.0587,0.0465,0.0529,–,–,0.0514,0.03,–,–,0.0696,0.0818,0.0704
M219W,0.0764,0.0636,0.0672,0.0665,0.0616,0.0518,0.0621,0.0698,0.0633,0.0597,0.0546,0.0694,0.044,0.0589,0.0656,–,0.0792,0.0712,–
V220E,0.0631,–,0.0537,0.0571,0.064,0.0615,0.0615,0.109,0.0817,–,0.0422,0.0595,–,0.0614,0.071,–,0.0482,0.0691,–
V220G,0.0608,–,0.0841,0.0665,0.0654,–,0.058,0.0655,0.0678,0.0567,0.0633,0.0505,0.0524,0.105,–,0.0689,0.0646,0.058,–
K221L,0.0558,0.0377,0.0774,0.0727,–,–,0.0558,0.0563,0.0666,0.0576,0.0617,0.0443,0.0732,–,0.0591,–,–,0.0671,–
